PubChem BioAssay AID2451 (National Center for Advancing Translational Sciences (NCATS), 2010)
Hit rate of the full screen: of about 290,000 compounds, about 2,100 (0.72%) were called active. Inconclusive results, whose numbers are uncertain, are shown with a selection of clear calls. The call rests on the fitted dose curve; in most records, active means well fitted inhibition curve with a large enough effect; inconclusive means small, poorly fitted or top-dose-only effect, or effect the other way; inactive means flat fitted curve, though single readings scatter. Where the call is inconclusive, the potency comes from a doubtful curve fit.

The compounds below were run against Fructose-bisphosphate aldolase (Giardia intestinalis (strain ATCC 50803 / WB clone C6)) (UniProt A8B2U2) (assay: qHTS Assay for Inhibitors of Fructose-1,6-bisphosphate Aldolase from Giardia Lamblia). Conditions: purified Giardia FBPA; activity, negative = inhibition: at 59.6 µM (top of the series) unless noted.
Sequence of UniProt A8B2U2 (A8B2U2 whole entry, looked up): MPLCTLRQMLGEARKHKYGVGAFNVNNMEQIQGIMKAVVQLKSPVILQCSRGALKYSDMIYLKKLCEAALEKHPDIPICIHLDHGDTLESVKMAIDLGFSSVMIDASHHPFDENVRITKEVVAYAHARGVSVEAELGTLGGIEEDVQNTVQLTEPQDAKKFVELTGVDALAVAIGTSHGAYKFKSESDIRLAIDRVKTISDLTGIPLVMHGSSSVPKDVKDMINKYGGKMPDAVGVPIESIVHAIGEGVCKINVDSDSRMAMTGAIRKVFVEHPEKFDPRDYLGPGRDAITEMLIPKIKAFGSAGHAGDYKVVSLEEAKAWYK
In short: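 Giardia FBPA (40 nM reagent) was preincubated 10 min at RT with compound (up to 57.5 uM final), then substrate plus GAPDH/TPI/NAD/arsenate coupling system with diaphorase/resazurin was added; resorufin fluorescence (525/598 nm) was read after 20 min.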
Further: nearly all actives have a fitted effect of over 55% in size.
On the % scale 0 is the no-effect control and ±100 the full control effect; potency means the concentration at half of the fitted maximal effect; tags describe the fitted curve by direction and shape.

SMILES	Potency	activity, negative = inhibition
CCOc1cc(NC2CS(=O)(=O)CC2O)c(OCC)cc1NC(=O)c1ccccc1 (centres undefined)	inconclusive: 12.6 µM [inhibitor, partial curve]	–
NNC(=S)NCc1ccco1	active: 17.7 µM	–
C/C(=C\C(=O)c1ccccc1)Nc1ccc(O)cc1	inconclusive: 19.9 µM [inhibitor, single point]	–
Fc1ccc(NCc2cccnc2)cc1F	inconclusive: 15.8 µM [inhibitor, partial curve]	–
CCOC(=O)c1c(-n2c(C)cc(C=C3C(=O)NC(=S)NC3=O)c2C)sc2c1CCCC2	inconclusive: 35.5 µM [inhibitor, single point]	–
Cc1ccc(C(=O)NCCc2ccncc2)cc1	–	inactive: 2.53%
Cc1ccc(NC(=O)CSc2nc3nc(C)c(Br)cc3[nH]2)cc1F	active: 17.8 µM	–
CCOC(=O)CC1=C(C(=O)OCC)C(c2ccc(OC)cc2OC)C(C#N)=C(N)O1 (centres undefined)	inconclusive: 15.8 µM [inhibitor, partial curve]	–
CCCS(=O)(=O)N1CCN(Cc2ccccc2[N+](=O)[O-])CC1	inconclusive: 19.9 µM [inhibitor, partial curve]	–
CCOc1ccc(C(=O)C(CN2CCOCC2)c2ccccc2)cc1 (centres undefined)	–	inactive: -12.1%
CCCCc1cc2c(cn1)=C(OC(=O)c1cccs1)C(C)(OC(=O)CC)C(=O)C=2 (centres undefined)	–	inactive: -2.16% [at 12.9 µM]
CNc1ccccc1C(C)(C)c1cc(-c2ccco2)n[nH]1	inconclusive: 15.8 µM [inhibitor, partial curve]	–
Clc1ccc(N2CCN(Cc3ccco3)CC2)cc1	inconclusive: 17.8 µM [inhibitor, partial curve]	–
CC(C)[C@H]1C=C(C(=O)O)O[C@@H](OCCCCO)C1	inconclusive: 28.1 µM [inhibitor, single point]	–
CCN1CCN(C(=O)Cc2coc3ccc4ccccc4c23)CC1	–	inactive: -5.86%
COc1cc(/C=N/Nc2ccnc(=O)[nH]2)ccc1O	inconclusive: 22.4 µM [inhibitor, partial curve]	–
CN[C@@H]1[C@H](O)[C@H](NC)[C@H]2O[C@@]3(O)C(=O)C[C@@H](C)O[C@H]3O[C@@H]2[C@H]1O	inconclusive: 17.8 µM [inhibitor, partial curve]	–
CCc1ccc(-c2cc(C)no2)cc1S(=O)(=O)Nc1cccc(CN2CCCC2)c1	–	inactive: -7.36%
Cc1cc([N+](=O)[O-])c2[nH]c(C(=O)N/N=C/c3ccccc3C(=O)O)c(-c3ccccc3)c2c1	inconclusive: 44.6 µM [inhibitor, single point]	–
COc1cc2ccccc2cc1C(=O)N1CCN(c2ccccn2)CC1	–	inactive: 5.95%
CC(C)Oc1ccccc1OCCN(C)C	inconclusive: 12.6 µM [inhibitor, partial curve]	–
CC(=O)Nc1ccc(NC(=O)C(C)OC(=O)c2ccccc2NS(=O)(=O)c2cccs2)cc1 (centres undefined)	inconclusive: 15.8 µM [inhibitor, single point]	–
COc1c(/C=N/Nc2nc(N3CCCCC3)nc(N3CCCCC3)n2)cccc1[N+](=O)[O-]	–	inactive: 0.335%
CN(C)c1cccc(C(=O)OCC(=O)Nc2ccccc2Cl)c1	–	inactive: -10.9%
Cc1ccc(-n2c(O)c(C=NCc3ccco3)c(=O)[nH]c2=S)cc1C	inconclusive: 22.3 µM [inhibitor, single point]	–

SMILES	Potency	activity, negative = inhibition
CC1(C)CN=c2s/c(=C\c3ccc(Cl)cc3)c(=O)n2C1	inconclusive: 15.8 µM [inhibitor, partial curve]	–
CN(C)c1cc(Nc2ccc(O)cc2)c([N+](=O)[O-])c2nonc12	–	inactive: -2.25%
CNC(=O)NC(=S)NC(=O)c1ccccc1Cl	inconclusive: 12.6 µM [inhibitor, partial curve]	–
c1ccc(CNc2ccnc(-c3ccc4c(c3)OCO4)n2)cc1	inconclusive: 14.1 µM [inhibitor, partial curve]	–
CCOC(=O)N1CCC(=NNc2nc(C)cc(=O)[nH]2)CC1	–	inactive: -28.5%
O=C1C(=O)N(CNc2cccnc2)c2ccccc21	inconclusive: 15.8 µM [inhibitor, partial curve]	–
CCCOc1ncnc2c1[nH]c1ccc(C)cc12	–	inactive: -12.6%
CCOCCCNC(=S)N1CCN(CC)CC1	inconclusive: 19.9 µM [inhibitor, partial curve]	–
Oc1cccc(/C=N/NC(=S)NCCN2CCOCC2)c1O	inconclusive: 0.792 µM [inhibitor, full curve]	–
O=C(O)c1ccccc1C(=O)c1ccc(N2CCCC2)c([N+](=O)[O-])c1	–	inactive: 22.7%
COc1ccccc1N1CCN(CCc2ccccc2)CC1	inconclusive: 17.8 µM [inhibitor, single point]	–
O=C(CN1CCN(c2ccc(O)cc2)CC1)NC(c1ccccc1)c1ccccc1	inconclusive: 17.7 µM [inhibitor, partial curve]	–
c1ccc(-c2[nH]ncc2CN2CCc3ccccc3C2)cc1	inconclusive: 35.4 µM [inhibitor, single point]	–
Cc1onc(-c2c(F)cccc2Cl)c1C(=O)NC1CCCCCC1	–	inactive: 0.975%
COc1ccc(Cn2c(O)c(/C=N/NC(=O)c3ccccc3)c(=O)[nH]c2=O)cc1	inconclusive: 44.6 µM [inhibitor, single point]	–
O=C(NCc1ccco1)c1cccn2c(=O)c3cc4ccccc4cc3nc12	inconclusive: 2.51 µM [inhibitor, full curve]	–
CCN1CCN(CCOCCOc2ccccc2-c2ccccc2)CC1	active: 17.7 µM	–
Cc1cc(C)c(OCC(=O)Nc2nnn(C)n2)c(Br)c1	–	inactive: 2.1%
Oc1ccc(/C=N/Nc2cc(N3CCOCC3)nc(N3CCOCC3)n2)cc1O	inconclusive: 15.8 µM [inhibitor, single point]	–
NC(=O)C1=C[C@H](c2ccc3c(c2)OCO3)C[C@H](OCc2ccc(CO)cc2)O1	inconclusive: 5.61 µM [inhibitor, partial curve]	–
O=C(N/N=C/c1ccc(O)cc1)Nc1cccc2nsnc12	–	inactive: -15%
N=c1n(CC(=O)c2ccc([N+](=O)[O-])cc2)c2ccccc2n1Cc1ccc(Cl)cc1	–	inactive: -1.93%
COc1ccc(OCCOCCN2CCN(C)CC2)cc1	inconclusive: 15.8 µM [inhibitor, single point]	–
Cc1cc(C)c2sc(N(CCN(C)C)C(=O)CCS(=O)(=O)c3ccccc3)nc2c1	inconclusive: 25.1 µM [inhibitor, partial curve]	–
CC(C)c1ccc(C2C3=C(COC3=O)Nc3cc4c(cc32)OCO4)cc1 (centres undefined)	–	inactive: -1.49%

SMILES	Potency	activity, negative = inhibition
CC1(C)CC(NC(=S)NCc2ccc3c(c2)OCO3)CC(C)(C)N1	inconclusive: 19.9 µM [inhibitor, partial curve]	–
COc1nc(/C(N)=N/O)nc(N2CCCCC2)n1	inconclusive: 19.9 µM [inhibitor, single point]	–
Cc1cc(C)c(S(=O)(=O)Nc2nnc(C(C)C)s2)c(C)c1	inconclusive: 14.1 µM [inhibitor, partial curve]	–
Cc1cc(C)c2c(n1)nn1c(NCCCn3ccnc3)cc(C)nc21	–	inactive: 6.85%
Cc1nn(-c2ccccc2)c2sc(C(=O)O)cc12	inconclusive: 22.3 µM [activator, single point]	–
O=C(CN(Cc1ccco1)C(=O)c1ccccc1)Nc1ccc(Cl)c(Cl)c1	inconclusive: 19.9 µM [inhibitor, single point]	–
C=CCOc1ccc(C2C3=C(CCCC3=O)N(CC(=O)O)C3=C2C(=O)CCC3)cc1OCC	–	inactive: -19.4%
CCO/C=C1/C(=O)N(C)C(=O)c2cc(OC)ccc21	inconclusive: 6.29 µM [inhibitor, partial curve]	–
COc1ccc(-n2nc(C(=O)NCC(=O)NCc3ccccc3OC)c3ccccc3c2=O)c(OC)c1	–	inactive: 0.522%
CCN(CC)S(=O)(=O)c1ccc(C)c(NC(=O)CNCc2ccccc2OC)c1	inconclusive: 14.1 µM [inhibitor, partial curve]	–
CC(=O)Nc1ccc(S(=O)(=O)N(C#N)c2nc(C)cc(C)n2)cc1	inconclusive: 25.1 µM [inhibitor, single point]	–
CCOC(=O)C1CCCN(CCSc2ccc(C)cc2)C1 (centres undefined)	inconclusive: 22.4 µM [inhibitor, single point]	–
CCOc1ccccc1NC(=S)NC(=O)c1ccco1	inconclusive: 39.8 µM [inhibitor, single point]	–
CCOC(=O)C1=C(N)Oc2cc(O)ccc2C1c1ccc([N+](=O)[O-])cc1 (centres undefined)	–	inactive: -18.8%
COc1cccc(N=CC2=C(O)CC(C)(C)CC2=O)c1	–	inactive: 0.482%
O=c1oc2ccccc2c2oc3cc(O)c(O)cc3c12	inconclusive: 15.8 µM [inhibitor, single point]	–
Cc1ccc2sc(NC(=O)CSc3nc(C)cc(C)c3C#N)nc2c1	–	inactive: -1.27%
Cc1ccc(NC(=O)c2ccc3c(c2)OCCO3)cc1C	–	inactive: -4.31%
COc1cc(OC)c(OC)cc1CN1CCN(C(=O)CC(C)C)CC1	inconclusive: 31.6 µM [inhibitor, single point]	–
COc1cc2c(cc1OC)CN(C(=O)CSc1nnc(C)s1)CC2	–	inactive: -16.7%
CSc1ccc(C(=O)C2CCCN(C(=O)c3nonc3C)C2)cc1 (centres undefined)	–	inactive: 1.45%
CN(C)S(=O)(=O)c1cccc(NC(=S)N/N=C/C(=O)c2ccccc2)c1	inconclusive: 31.5 µM [activator, single point]	–
COc1ccccc1CNc1ccc2c(c1)CCC2	inconclusive: 12.6 µM [inhibitor, partial curve]	–
CC1(C(=O)NNC(=O)c2cccc([N+](=O)[O-])c2)CC1(Br)Br (centres undefined)	inconclusive: 25.1 µM [inhibitor, single point]	–
